Data published in patent publication US20220251204A1 (AstraZeneca / MedImmune, published 2022).

T1: hOX40-Fc (human recombinant protein, R&D Systems) (human, UniProt P43489 29-216)
T1 construct: also called human OX40-Fc; not shown: Fc part of the bought fusion
T1 sequence: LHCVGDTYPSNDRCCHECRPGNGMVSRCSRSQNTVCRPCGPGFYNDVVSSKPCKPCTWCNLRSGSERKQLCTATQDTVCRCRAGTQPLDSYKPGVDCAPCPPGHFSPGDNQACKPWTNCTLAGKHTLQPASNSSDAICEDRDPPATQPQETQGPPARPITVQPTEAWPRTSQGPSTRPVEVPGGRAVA

B1: BiS2 OX40Ab/PD-L1 (bispecific antibody, human IgG4 S228P, kappa)
heavy: EIVLTQSPGTLSLSPGERATLSCRASQRVSSSYLAWYQQKPGQAPRLLIYDASSRATGIPDRFSGSGSGTDFTLTISRLEPEDFAVYYCQQYGSLPWTFGCGTKVEIKGGGGSGGGGSGGGGSGGGGSEVQLVESGGGLVQPGGSLRLSCAASGFTFSRYWMSWVRQAPGKCLEWVANIKQDGSEKYYVDSVKGRFTISRDNAKNSLYLQMNSLRAEDTAVYYCAREGGWFGELAFDYWGQGTLVTVSSGGGGSGGGGSQVQLQESGPGLVKPSQTLSLTCAVYGGSFSSGYWNWIRKHPGKGLEYIGYISYNGITYHNPSLKSRITINRDTSKNQYSLQLNSVTPEDTAVYYCARYKYDYDGGHAMDYWGQGTLVTVSSASTKGPSVFPLAPCSRSTSESTAALGCLVKDYFPEPVTVSWNSGALTSGVHTFPAVLQSSGLYSLSSVVTVPSSSLGTKTYTCNVDHKPSNTKVDKRV[human IgG4 Fc with S228P (EU numbers) not shown]
light: DIQMTQSPSSLSASVGDRVTITCRASQDISNYLNWYQQKPGKAPKLLIYYTSKLHSGVPSRFSGSGSGTDYTLTISSLQPEDFATYYCQQGSALPWTFGQGTKVEIKRTVAAPSVFIFPPSDEQLKSGTASVVCLLNNFYPREAKVQWKVDNALQSGNSQESVTEQDSKDSTYSLSSTLTLSKADYEKHKVYACEVTHQGLSSPVTKSFNRGEC
notes: also called BiS2-PD-L1-OX40 HC-4P; OX40/PD-L1 BiS2
B2: BiS3 OX40Ab/PD-L1 (bispecific antibody, human IgG4 S228P, kappa)
heavy: QVQLQESGPGLVKPSQTLSLTCAVYGGSFSSGYWNWIRKHPGKGLEYIGYISYNGITYHNPSLKSRITINRDTSKNQYSLQLNSVTPEDTAVYYCARYKYDYDGGHAMDYWGQGTLVTVSSASTKGPSVFPLAPCSRSTSESTAALGCLVKDYFPEPVTVSWNSGALTSGVHTFPAVLQSSGLYSLSSVVTVPSSSLGTKTYTCNVDHKPSNTKVDKRV[human IgG4 Fc with S228P (EU numbers) not shown]GGGGSGGGGSEIVLTQSPGTLSLSPGERATLSCRASQRVSSSYLAWYQQKPGQAPRLLIYDASSRATGIPDRFSGSGSGTDFTLTISRLEPEDFAVYYCQQYGSLPWTFGCGTKVEIKGGGGSGGGGSGGGGSGGGGSEVQLVESGGGLVQPGGSLRLSCAASGFTFSRYWMSWVRQAPGKCLEWVANIKQDGSEKYYVDSVKGRFTISRDNAKNSLYLQMNSLRAEDTAVYYCAREGGWFGELAFDYWGQGTLVTVSS
light: B1 light
notes: also called BiS3-OX40 HC-4P-PD-L1; OX40/PD-L1 BiS3

Biological target: T1, hOX40-Fc (human recombinant protein, …)
Assay: Octet, same sensor after PD-L1-His and bispecific, then hOX40-Fc (100 nM per paragraph 346): concurrent binding

Binder | binding result
B1 | binds
B2 | binds
